Laboratory results as given in publication PMC10726135.
Some of the results follow. At the low end of the ranking the order means little. The protein was read in a cell extract, so binding may be indirect.

These sequences were tested against T1, HNF4alpha2 (COS-7 nuclear extract) (UniProt P41235) (assay: protein-binding microarray). Conditions: COS-7 nuclear extract on double-stranded Agilent 4x180k PBM; binding buffer, salt, pH and temperature not given; high values mean tight binding; double strand, one strand shown; sequences stand for … in …GCCTAGGGAGATTAGAGTATCGGTCGA.
T1 sequence: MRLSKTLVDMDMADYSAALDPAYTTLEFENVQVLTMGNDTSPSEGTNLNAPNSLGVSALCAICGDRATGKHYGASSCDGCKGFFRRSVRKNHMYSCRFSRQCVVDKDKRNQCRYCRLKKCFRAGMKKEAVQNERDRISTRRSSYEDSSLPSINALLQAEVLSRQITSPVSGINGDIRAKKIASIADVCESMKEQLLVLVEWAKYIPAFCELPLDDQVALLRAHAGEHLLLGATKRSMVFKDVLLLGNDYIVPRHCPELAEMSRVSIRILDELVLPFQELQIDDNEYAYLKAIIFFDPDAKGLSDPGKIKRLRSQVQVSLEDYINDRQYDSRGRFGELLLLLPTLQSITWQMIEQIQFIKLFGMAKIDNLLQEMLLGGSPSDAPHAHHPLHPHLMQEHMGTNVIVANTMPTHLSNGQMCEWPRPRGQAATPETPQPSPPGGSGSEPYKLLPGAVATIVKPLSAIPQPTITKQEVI

Sequence	binding signal (log2 normalized intensity)
CTTCAGCACCTTTTAAAATAGATAAGTCCC	0.338
TTGCCACATTTATTGTGAGATTACGTAAGT	1.68
ACCCACCAACAAAAGAAAGCCCATTAAATC	-1.12
GGATGAAGGAAGAGGGAAGACCAAAGGCCA	-1.11
TACACTCGCCGTGTGACTGAGGGCTGACAT	-0.964
AGCAACCAGAATGTTCAAAAGTGTGTTGGT	1.67
CTTTCAGAAGGGGACAAGCACATTAGGAGG	-1.12
CTCTGTGCTCCCAGTTCCCTCATTAGTAAC	1.33
AGCCTGCCTGCTCCTCCTCGTGAGTTGGAG	-1.06
ACATTCTTCAATATCAGTGGCACTCTCTGG	1.53
TCCCCTCCCAAGGCAGCAATCCCCTGCAAT	4.88
ATTAGCTTCTGTTCAGGAGTTGTCTGTCCA	1.1
CACAGAGGGAAATGCAAACATTTCTGGAAT	-1.22
ACAGATGGTGTTAAATCCTATCCTAGGGTT	-1.08
GATTAGAAGATAGCTTTAAAGACCAAAGAT	-0.801
ATTAGTAGCAATACTTTCAGCTAGCTGAGT	-1.14
GATTAAAGGAGAACTGAGTAGGAGAATGTT	-0.329
AAGCCCAAGGGATCGTCCAAATACCTAGCT	-1.22
CCCCCAGAGCCCCGTGTCTCCCTACCTCTG	3.68
GCAAGATTAAGATCAAAGAATTCCTAATAA	-1.26
GAATTTTCTCATCCGCTAATGACACCAGGG	-0.855
CAAGAATTTAAGAGAACTAGAGATAAGGTA	-0.654
CTCTAACCACTTTGAAATAGTGACCTCTGC	4.36
TATATTTGTGCAAGAATGCGTCATCCGCAT	0.493
ATCTAGAGACACTATGTGCATTCCAAGGCT	-1.1

Sequence	binding signal (log2 normalized intensity)
GAGAGGGATAAAAGGGGAAAAGGTCAAATA	2.32
GCATTTCTGGACTTGGATCAGCCTGATTGA	1.94
AAAGGTGAGTATGAGTAGGCTGTAGAGGAG	-0.455
TCTCTCACCAGAAAAATGTACATGTGCAAA	1.52
CTTGCTAAGTATAAAGTTAAGACCTACATT	-1.16
CGACCTCATGAGTAGAGAGCAATCATGGGC	-1.17
GGATTCAGATCCAGTGGACTCTCTGTTTGA	2.63
AACTCCTTGAGAAGTACAACTTCAGCAATG	-1.16
TCTAGGAGCCTGGACATTTGCCACCAATGC	-1.08
AAAGAAGCAAAGGTTGGCTAAAGATAACCT	-1.22
TGAGACATTTTGTCTTTTCTCCCCTGACTA	2.63
GGAAAGCACAGCTGATTGCTCAACCCAAAG	-1.11
AGGCCCACACCCCTGGGGAAGGCAGGTCTC	-1.09
TGGGCAGGCTCCCTCCCTGGGAGGCAGGAC	-1.16
ATCTGCGAAATGGGGATAAACACCCCCATC	-0.827
TCACAGGTTCCAGCATGGACTTCACAGCCT	-0.535
ACCTGAGAACAAACAATGGTTTGGGACAAA	-0.924
TCCCCCAACTTACTTAGTGGCTCCTAGAAT	0.316
CCTGAGAGGGCTCAAGGTCTGCATGCCATT	-1.28
CCCCCCAAGTTGAAGCCATCCTCCCACCTC	5.83
GGTCCGGCCCGACTCACGACCCCGCGGGAC	0.0393
AAGGTTATTATATTGTGGGTTCTTGCCCTT	2.97
ACAAGCCAGGTGTGCAGAGAGCAAACGAAC	-1.03
ATATGCACTTGCCCTTTGGTAATCCTGCTC	2.44
CTGACTGTGTCTGTTTACCCACTTGGGGTT	1.44

Sequence	binding signal (log2 normalized intensity)
TGTGCCGGGTATGTGGGGCGTGTGTTAGAC	1.84
GTTTTGTCTTCTGTTTGCAAATGGATGAAT	2.03
CCAGTTCTTTTGACCTTTGCCTCATTCTTA	6.03
AAAGGGACTCATCTCCAAACGAGACTTTGG	1.6
TGTTGCGTAAGGGTCTGACCTGGCTGCTTG	0.997
TATCTTTGGAGAATGCCTTTTGTGTAGGAG	1.64
CAGTGTGTTGCATGCCACAGCGCCCTCAGT	0.532
TTTGGCTGTAGAAAGACTAAAGTTCAGGAG	1.6
TGTCTCAGCCCAAGATCAAAAGGCAGAGAG	-1.16
TCGCCCTCCGTCGTGGCCTGGCGTGGATTC	0.689
GGAGGTCTGCACAAAATACAAGTCGTAAAG	-1.07
ATTGCACCCTTCCCTAAGATTTATCCCAAA	0.83
GAAGTATTTATTGAGCACACACTCTTCGAA	-1.07
CAAAGGCATTTCTGGACTTGGATCAGCCTG	1.97
AGGAGGCTGAAGACTTTGCACCAAGGAGAC	-0.825
AGTTATATCTTACCTCCTTCTCCCCCATGC	4.87
GATAAGGATCTAAGAACTAACATGGATCTA	-0.974
AGGACTTTGTGATTACATTGAGTCCACTGA	1.87
CACAGACTTTGGAATCACAATGATAACAGC	0.158
TGGGTAAACAGACCTCTCTCTCCCCAGACA	3.24
CCAGCGCAGGGGCTTCTGCTGAGGGGGCAG	-0.944
TCTTATCTGGGGGCCATTCCTCTATCTCCC	0.336
TGAGCATTCCAAAAAGCTTTTGTCATGACC	1.72
